# Measured values published in article PMC12136788.
# This is one part of the list.
# B1: 38089502_38089622_476_5pUTR_ENSMUSG00000022812_ENSMUST00000023507|mouse|control|control (ssRNA)
# RNA: GGGAGUUCUACAGUCCGACGAUCGGGGCUGCUCUGUGCGAGGCGCGCCGUCUGCGCAGCCGCCUAGCCCUUCCCCACUCCCCCUCCCCCUUCCUACUCGUCCUCCGCCUCCUUCCUCCCCCACCCAGCCCUUACACCGCCCAGCAACAGAGGAUUGAGCAUCA
# B2: 117957435_117984873_1551_3pUTR_ENSG00000198162_ENST00000356554|human|control|control (ssRNA)
# RNA: GGGAGUUCUACAGUCCGACGAUCCACUGCUUUAAUCUUGAAUAUCUCCUCUCCUGAUAGGUAAUAUGCUGCAAGUAGGCCUCCAAUAAAUCGAAUGUUGACUUCAAACACAGACACCUCUGAAUUCACACUGAAAUCAAGGUUCAACAGAGGAUUGAGCAUCA
# B3: 135279348_135279468_1970_CDS_ENSG00000155561_ENST00000285968|human|control|control (ssRNA)
# RNA: GGGAGUUCUACAGUCCGACGAUCUUCCAAUGACUGCCAGAGGGAAGCAGCAAUUUCAGGAGAUUUUCCAAAAGCUGCGAGUGUCUUCAGUAGCUCAGCUUUUAGGACAGGGGGAAUACUGCAUUGGAGGAGUCCCAGAAUCACCAACAGAGGAUUGAGCAUCA
# B4: 15159152_15162069_1653_3pUTR_ENSG00000085721_ENST00000198767|human|control|control (ssRNA)
# RNA: GGGAGUUCUACAGUCCGACGAUCGGUACUCCUAAUGACUGGCAGCAUCUGGCGAUUGUUCCUCUCAAUGAUGGUGUAGCAGAAGACGAGCUGGUACUUAUUUGUGAUUGCAGCAAAAAAGUUAACCACUGAGGGCAGGCAAAUCAACAGAGGAUUGAGCAUCA
# B5: chr4:115894766:115894767:+_ENSMUSG00000028698_ENSMUST00000030464|mus_hu|mus_mus_mus_hu_True|1_18 (ssRNA)
# RNA: GGGAGUUCUACAGUCCGACGAUCUUCCACACGGAAAUGUACUUCGGGUUUUCCAACGGCCAGUACCAGUCCGGCCAAACUACCCGAACAGGGUCCUCCCCCUCUCUCCUACAGAACUAAAGCACCCGCCCCCGAACCCCGAACCAACAGAGGAUUGAGCAUCA
# B6: chr4:128986876:128986877:-_ENSMUSG00000057236_ENSMUST00000102598|mus_hu|FALSE|FALSE (ssRNA)
# RNA: GGGAGUUCUACAGUCCGACGAUCCUGCUGGUGAAACAGGUCACCCAAAAUGGAGAUGGCAUCAAACUAGUGGUCAAGGACUAACUCCAUUUGCCACACUUGCAUGAUAUUGUCUUCUGAUACAGAACAAAUCACCCAAGGUUCCAACAGAGGAUUGAGCAUCA
# B7: 74896617_74897821_1695_CDS_ENSG00000122882_ENST00000372979|human|control|control (ssRNA)
# RNA: GGGAGUUCUACAGUCCGACGAUCUAAACAUUCAAAGUCUUCAUCAUCCAGAUCAUCAGAAUCUGACUCAUUAGGCCUUGGCCCUAAAAUCUUAUCAAAAUAAUUAAGAAAAGAAUCUGCAUCAAAAGUGAUUGGAGCCUCAGACAACAGAGGAUUGAGCAUCA
# B8: chr6:35837335:35837336:-_ENSG00000096063_ENST00000361690|hu_hu|FALSE|FALSE (ssRNA)
# RNA: GGGAGUUCUACAGUCCGACGAUCUUGCUCUUGUUCAUCUUCACAGGGUAUCUCUGCCCGAAUGCUUUCUUGAAGUUGGCUAAUGUGUUGUUCACUGAAUGACUGACCUACAGUUGAGGAAGACUGGCACACCAUGGUGUCUGACAACAGAGGAUUGAGCAUCA
# B9: 56322392_56325103_1058_CDS_ENSG00000134852_ENST00000309964|human|control|control (ssRNA)
# RNA: GGGAGUUCUACAGUCCGACGAUCUAGAAACAGAAACUUCCAUUCUAAACUAUGUCUAGAUGUAAACUCUUCAUUGGGUUCUUCAACAGUGCACAUUUCCUUGAUGAACUGAGGUGUAGCUAACCUGACAGUAGCUACAAAACACAACAGAGGAUUGAGCAUCA
# B10: 43436322_43464990_2321_CDS_ENSG00000052841_ENST00000039989|human|control|control (ssRNA)
# RNA: GGGAGUUCUACAGUCCGACGAUCUUCCAAAGGCCAUGCCUGUUGAAAUUCAUCCACCAAAGCCAGUAUUUCUUCUGACAUUUUGGUUUCAUCUGAAUUCUCCAUCUCAUCAGAACCAUUGCUCUCCUCAACCACCGUACCACUCAACAGAGGAUUGAGCAUCA
# B11: chr3:39121231:39121232:+_ENSG00000114742_ENST00000302313|hu_mus|motif|central (ssRNA)
# RNA: GGGAGUUCUACAGUCCGACGAUCAUUCGUAUCUUUGGUUAAUAUGUGUCGCUUGUCAUUUAGGAUGUGGCACUGAAUAAUACGGGCGCCCCCUUUAAUAACUUGGUCGGGCUGUGUGCAGAGGGGCGUUAUGGGGUUUGUACACAACAGAGGAUUGAGCAUCA
# B12: chr2:90693216:90693217:+_ENSMUSG00000027282_ENSMUST00000136872|mus_mus|motif|central (ssRNA)
# RNA: GGGAGUUCUACAGUCCGACGAUCCUCUUUGAUAACUCGGUCAAAGGAGGAUGAAUAUUCUUUUUGUACAGUUACAGAUCCGGACUCCUCAGGUUUCUCAGACUCCUGGUAAUACUGUAAGACUUUCCCAUGGACCACAGUUCCCAACAGAGGAUUGAGCAUCA
# B13: chr4:82150701:82150702:-_ENSMUSG00000008575_ENSMUST00000064770|mus_hu|motif|central (ssRNA)
# RNA: GGGAGUUCUACAGUCCGACGAUCUAAAACGCACUUUCCGGGAGAUGCCCAAGAAAAUCUUCGAGAAGCAAGAAUUUCAUCGGUUCAUUUUACAGUCAUCUGAGCCCCGCGAUGCGAUCAAUCAGGACGGGGCUCUGCGCUGGACAACAGAGGAUUGAGCAUCA
# B14: chrX:69798090:69798091:-_ENSMUSG00000031343_ENSMUST00000055966|mus_mus|mus_mus_mus_hu_False|58_108 (ssRNA)
# RNA: GGGAGUUCUACAGUCCGACGAUCAAGUCCCCAGGUUCUUGUCGUCUUGAUUCCCCUUGACCAGUGGUUCCAGGGAGAAUACUAAUCAGGAAAAGAAUCCCAAGGCUGGUCAUGUAACAGUGACUUGUUUGUGUGAUUAUCAUCCAACAGAGGAUUGAGCAUCA
# B15: chr19:58870598:58870599:-_ENSMUSG00000025092_ENSMUST00000066285|mus_mus|motif|central (ssRNA)
# RNA: GGGAGUUCUACAGUCCGACGAUCUCUUCGAUUAAUAAUGCAUUUUUGACUCCUGUUUAUAUUGGUGCAUGCAAUUCUUUGCGGCCCUGGCAAUUAACCAGACCUGGACUCUAAAAGCUAAACUUGGUCUAAGUAACAUUCUAACAACAGAGGAUUGAGCAUCA
# B16: chr12:41043843:41043844:-_ENSMUSG00000055917_ENSMUST00000069637|mus_mus|motif|central (ssRNA)
# RNA: GGGAGUUCUACAGUCCGACGAUCUUUGGAUUUGAACUUUACAUGGCAACUGUAGCACUUGCAUUGGUGAACUUGCCUUCGGAUGAAAUUGACCAGCUUCACUUGCUGAUAGAAAUUUAAUCCAAGCUCUGACUUUAUUCUGAGCAACAGAGGAUUGAGCAUCA
# B17: chrX:71549762:71549763:+_ENSMUSG00000019087_ENSMUST00000019231|mus_mus|FALSE|FALSE (ssRNA)
# RNA: GGGAGUUCUACAGUCCGACGAUCCCAGUGUACCACUCACUCUUAACACAUCACCCCUCCCCCCCAAAAAACAUAACAGCUAAGCUGGACAGACAGUCAAGUAGUCUUUCCACACCUCGCAAAUUCAAGGAACCUCAAGUUCAUCAACAGAGGAUUGAGCAUCA
# B18: chr17:60770872:60770873:+_ENSG00000011028_ENST00000303375|hu_hu|hu_hu_hu_mus_True|8_18 (ssRNA)
# RNA: GGGAGUUCUACAGUCCGACGAUCUCUUUAAAAAAAAAAAAAAAAAGACAAACAAUAAUAGCACAUUUCGAGAAUCAAGAACUACAAUAGAGGGUCCGCUUUGAGUUUUUGUUCACAACAUUGUCCCACGCUGUCGCGGGACUGCAACAGAGGAUUGAGCAUCA
# B19: chr11:35622686:35622687:-_ENSMUSG00000018848_ENSMUST00000018992|mus_hu|FALSE|FALSE (ssRNA)
# RNA: GGGAGUUCUACAGUCCGACGAUCGAAAGCAGUUGCCAGCUCAUAUAUAUAAUCACAGAGAGUGUGGAGAAAUAAGUCAUCUAAAAUCUUUUGCAGAAUCUCAGGGAACCGUAAAAUGCACCGGCCUAGUUUCCAUUCCUUCUCCAACAGAGGAUUGAGCAUCA
# B20: 67703826_67704027_1851_CDS_ENSG00000111530_ENST00000544619|human|control|control (ssRNA)
# RNA: GGGAGUUCUACAGUCCGACGAUCAAGACAACUGUCUAGAAGUGUGUACAUACACUCAAAUGCUGCCUUUCUAAUAUCCAGACCAUCAUCAACCGUAUGUUUAAAUGGACCCAUUUCUACCUCUCUUAUAAGCUCCUUUCUAACCAACAGAGGAUUGAGCAUCA
# B21: chr1:244855233:244855234:+_ENSG00000121644_ENST00000302550|hu_mus|hu_hu_hu_mus_True|38_78 (ssRNA)
# RNA: GGGAGUUCUACAGUCCGACGAUCCAUCAGAUGGUAGGCGUUGCCCUUAUACUCUUUUCCCAGUUCUUCUACAAUUUUCUCUAUAUCAUCUUCUAGAAAGUCCGUGCUUCCUAGAACAACAGCUUCUUUAAAUUUAAAUGUUUCCAACAGAGGAUUGAGCAUCA
# B22: chr2:120444880:120444881:+_ENSMUSG00000027285_ENSMUST00000124187|mus_mus|motif|central (ssRNA)
# RNA: GGGAGUUCUACAGUCCGACGAUCUCACUUGGCCCUGGAGGUUUCGGUGUGAGCCUUAGGAAAAAAAGGUAAAGGAGGCACGGUGUCAAGUUCAUGAAGAUGGCGUUCUUCAGUUAGCAUUUUGGGGAUAUACAAGGAAAUUUCCAACAGAGGAUUGAGCAUCA
# Target: T1, UNK ZnF1-3 (human, UniProt Q9C0B0 31-174)
# T1 sequence: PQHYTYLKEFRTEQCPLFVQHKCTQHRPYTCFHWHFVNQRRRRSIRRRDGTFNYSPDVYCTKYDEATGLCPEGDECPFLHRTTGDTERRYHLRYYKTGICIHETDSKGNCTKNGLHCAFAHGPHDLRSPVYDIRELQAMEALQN
# Assay: nsRBNS (natural sequence RNA bind-n-seq); RBNS binding buffer (assumed for nsRBNS): 25 mM Tris pH 7.5, 150 mM KCl, 3 mM MgCl2, 0.01% Triton X-100, 500 ug/ml BSA, 20 U/ml SUPERase-In, 4 C; UNK is unkempt and MSI1 is Musashi-1; names of the RNAs are library labels; protein concentration not given here; high values mean tight binding
row,Binder,binding signal
1,B1,0 enrichment R
2,B2,1.31 enrichment R
3,B3,1.67 enrichment R
4,B4,2.12 enrichment R
5,B5,1.05 enrichment R
6,B6,1.17 enrichment R
7,B7,1.16 enrichment R
8,B8,0.508 enrichment R
9,B9,0.349 enrichment R
10,B10,0.811 enrichment R
11,B11,0.715 enrichment R
12,B12,0.894 enrichment R
13,B13,0.967 enrichment R
14,B14,0.706 enrichment R
15,B15,0.971 enrichment R
16,B16,0.829 enrichment R
17,B17,1.65 enrichment R
18,B18,2.92 enrichment R
19,B19,1.69 enrichment R
20,B20,1.68 enrichment R
21,B21,1.23 enrichment R
22,B22,1.62 enrichment R
